Experimental data taken from the antibiotic and cytotoxicity screens of Wong et al. (2023).
Some of the results follow.

Experiments:
HSkMC = human skeletal muscle cells; test: cytotoxicity call (relative viability < 0.9); conditions: 10 µM
HepG2 = test: cytotoxicity call (relative viability < 0.9); conditions: 10 µM
S. aureus RN4220 = test: growth inhibition call (relative growth <= 0.2); conditions: 50 µM

| Compound | cytotoxicity call (HSkMC) | cytotoxicity call (HepG2) | growth inhibition call (S. aureus RN4220) |
| --- | --- | --- | --- |
| COc1cccc(NC(=O)N[C@@H]2CC[C@@H](CC(=O)N3CCOCC3)O[C@H]2CO)c1 | inactive | inactive | inactive |
| Cc1noc(C)c1NC(=O)Nc1ccc2c(c1)C(=O)N([C@H](C)CO)C[C@@H](C)[C@@H](CN(C)Cc1ccc(C(F)(F)F)cc1)O2 | inactive | inactive | inactive |
| COCC(=O)N(C)C[C@H]1Oc2cc(C#C[C@H](C)O)ccc2S(=O)(=O)N([C@H](C)CO)C[C@@H]1C | inactive | inactive | inactive |
| C[C@H]1CN([C@@H](C)CO)C(=O)c2cccc(NC(=O)C3CCOCC3)c2O[C@@H]1CN(C)S(=O)(=O)c1ccccc1 | inactive | inactive | inactive |
| O=C(C[C@@H]1CC[C@H]2[C@@H](COC[C@@H](O)CN2S(=O)(=O)c2ccc(Oc3ccccc3)cc2)O1)NCCN1CCCCC1 | inactive | inactive | inactive |
| O=C(CCC1=NS(=O)(=O)c2cc(Br)cnc2N1)N1CCOCC1 | inactive | inactive | inactive |
| C[C@@H]1CCCCO[C@@H](CN(C)S(=O)(=O)c2cn(C)cn2)[C@H](C)CN([C@H](C)CO)C(=O)c2cc(NC(=O)Nc3ccc(C(F)(F)F)cc3)ccc2O1 | inactive | inactive | inactive |
| C[C@H]1CCCCO[C@@H](CN(C)C(=O)Nc2ccc3c(c2)OCO3)[C@@H](C)CN([C@@H](C)CO)C(=O)c2cc(NC(=O)c3ccncc3)ccc2O1 | inactive | inactive | inactive |
| Cc1ccc(S(=O)(=O)N(C)C[C@@H]2Oc3ccc(NC(=O)Nc4ccc(C(F)(F)F)cc4)cc3C(=O)N([C@@H](C)CO)C[C@H]2C)cc1 | inactive | active | inactive |
| C[C@@H]1CCCCO[C@@H](CN(C)C(=O)Nc2ccc(F)cc2)[C@@H](C)CN([C@H](C)CO)C(=O)c2cc(NC(=O)CCC(F)(F)F)ccc2O1 | inactive | inactive | inactive |
| O=C(C[C@@H]1CC[C@H]2[C@@H](COC[C@H](O)CN2C(=O)Nc2cc(Cl)cc(Cl)c2)O1)N1CCOCC1 | inactive | inactive | inactive |
| C[C@H]1CN([C@@H](C)CO)C(=O)c2ccccc2-c2ccccc2CO[C@H]1CN(C)Cc1ccc(Oc2ccccc2)cc1 | inactive | inactive | inactive |
| CCCCCCCCCCCCC[N+](C)(C)Cc1ccccc1 | inactive | active | active |
| N#Cc1cnc2c(C(N)=O)cnn2c1N | inactive | inactive | inactive |
| CN(C)CCCN1c2ccccc2Sc2ccc(Cl)cc21.Cl | inactive | active | inactive |
| C[C@@H]1CN([C@@H](C)CO)C(=O)c2cc(NC(=O)CCCN(C)C)ccc2O[C@H]1CN(C)Cc1ccccc1 | inactive | inactive | inactive |
| Cc1n[nH]c(NN2CCOCC2)nc1=O | inactive | inactive | inactive |
| COCCOC(=O)N1C(=O)[C@@]2(c3ccccc31)[C@H](c1ccc(OCCO)cc1)N1[C@H](c3ccccc3)[C@H](c3ccccc3)OC(=O)[C@H]1[C@@H]2C(=O)N1CCc2cc(OC)c(OC)cc2C1 | inactive | inactive | inactive |
| C[C@H](CO)N1C[C@H](C)[C@H](CN(C)S(=O)(=O)c2ccc(Cl)cc2)Oc2ccc(NC(=O)C3CC3)cc2C1=O | inactive | inactive | inactive |
| COc1ccc([Si](C)(C)[C@@H]2[C@@H](CC(=O)N3Cc4ccccc4C[C@H]3CO)O[C@]3(C(=O)N(C)c4c(Br)cc(C)cc43)[C@H]2C)cc1 | active | inactive | inactive |
